Results reported in PubChem BioAssay AID623962 (The Scripps Research Institute Molecular Screening Center, 2012).
Not every entry of the source has a single result; some have several. The list is limited to them.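 The calls were made as follows: active = mean inhibition at 10 µM of 50% or more; inactive = mean inhibition at 10 µM below 50%.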 The source may hold further records. The values listed for one entry are repeats (runs, samples, wells, individuals or studies). Brackets tell where a record comes from. Letters count within one entry.

test system: Huh-7.5 HCV Rluc replicon, luciferase luminescence, 72 h; assay: HCV RNA replication inhibitors in Huh-7.5 cells – cell-based, luminescence, Renilla luciferase replicon, orthogonal assay for HCV NS3 helicase inhibitor project, late-stage follow-up (AID 623962); conditions: at 10 µM; stronger effect = higher value
In short: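 Test system – Huh-7.5 human hepatoma cells with HCV replicon–Renilla luciferase fusion · Doses – single dose, 10 µM final, 0.5% DMSO final · Times – 4-5 h attachment, 72 h compound exposure at 37 °C · Signal – Renilla luciferase luminescence of lysed cells · Measure – % replication inhibition versus DMSO-treated cells · Controls – DMSO-only wells as reference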

Row | SMILES | inhibition
1 | Cc1ccc2nc(-c3ccc4nc(-c5ccc(N)cc5)sc4c3)sc2c1S(=O)(=O)O | inactive: 9% [sample A] and 55% [sample B] and inactive: 12% [sample C]
2 | NS(=O)(=O)c1ccc2nc(NC(=O)c3ccc4ncsc4c3)sc2c1 | 54% [sample A] and inactive: -9% [sample B]
3 | Cc1ccc2nc(-c3ccc4nc(-c5ccc(NC(=O)c6ccc7ccccc7c6)cc5)sc4c3)sc2c1S(=O)(=O)O | 61% [sample A] and inactive: 21% [sample B]
